Source: the supplement of paper PMC5499739
The full ranking holds about 16,000 sequences; the median of “Z-score” is about -0.37, and the highest 2% start at about 3.2. The list shows a part of the results.

Each sequence was assayed on RBM10 RRM1-ZnF (GST-tagged construct) (assay: RNAcompete 7-mer binding Z-score; higher = stronger binding preference).
Method: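 RNAcompete: 20 pmol GST-tagged RBM10 RNA-binding constructs were incubated with a designed RNA pool of about 241,000 sequences up to 41 nt (1.5 nmol) on glutathione beads for 30 min at 4 °C and washed. Bound RNAs were identified by microarray hybridisation. Each RNA 7-mer is scored by a one-sided Z-score of its enrichment, computed over probes that contain the 7-mer within longer pool sequences.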

| Sequence | RNAcompete 7-mer binding Z-score |
| --- | --- |
| GUAAGGG | 3.85 |
| UUCGGAC | -0.539 |
| GAGUCAG | 0.407 |
| CGAAAGA | -0.204 |
| GGUAGGC | 1.92 |
| AUAGACC | -0.545 |
| AGAUGCU | -0.552 |
| ACAGCGG | 1 |
| UGCGAUC | -0.561 |
| UCAUUGG | -0.123 |
| UGAUUCU | -0.763 |
| GGGAGAG | 2.97 |
| CGCUCGC | -0.659 |
| ACGGUAG | 1.13 |
| CCUUAUG | -0.876 |
| GGCCCCC | -0.142 |
| UCGACGC | -0.665 |
| UCCAGUC | -0.782 |
| ACGCUUU | -0.886 |
| AGCUAAG | -0.035 |
| ACCGGUC | -0.535 |
| UCUACAU | -0.646 |
| GACGGGG | 3.13 |
| CCCGACA | -0.649 |

| Sequence | RNAcompete 7-mer binding Z-score |
| --- | --- |
| GUAACAC | -0.0155 |
| GGACACU | 0.102 |
| CGGGAAA | 2.41 |
| ACGGAAC | 0.651 |
| AUAAGCC | -0.792 |
| CUUGUCG | -0.629 |
| CAGCGGU | 0.527 |
| GGGCCGG | 1.23 |
| UGGUGCU | 0.956 |
| AGCAUGG | 1.6 |
| AUCACCU | -0.808 |
| GUCCACC | -0.698 |
| AUGGUGU | 2.3 |
| UUGAAGG | 2.03 |
| UCAGUUG | -0.353 |
| CACUGCC | -0.522 |
| GUGAUAC | 0.459 |
| GUUCCCU | -0.565 |
| ACUAUCC | -0.821 |
| AUAAGGC | 0.342 |
| CGUAAUC | -0.545 |
| GUAAACA | 0.118 |
| CCUAAGC | -0.642 |
| CGCCUGC | -0.188 |

| Sequence | RNAcompete 7-mer binding Z-score |
| --- | --- |
| GUAAUUA | -0.35 |
| GUGGAUG | 2.93 |
| GCCAACG | 0.0365 |
| AGUCGUC | -0.366 |
| GGGAUCC | 0.647 |
| AGGAUAG | 2.16 |
| AGCACGU | -0.269 |
| UGAUUUC | -0.847 |
| GUGCCUG | 0.0268 |
| CGCCGAC | -0.607 |
| GAUGGAC | 1.78 |
| AGCACAA | -0.438 |
| UAUGAUA | -0.201 |
| AAUGCUC | -0.636 |
| GUUUCGG | 0.865 |
| CUUCGUU | -0.837 |
| GAAACGC | -0.35 |
| ACGCCAG | -0.516 |
| GGUUUGU | 1.25 |
| CGGCAAG | 0.209 |
| AGACAGU | -0.249 |
| ACCCGGA | -0.441 |
| CCGAUGC | -0.694 |
| UUCGGGA | 0.878 |

| Sequence | RNAcompete 7-mer binding Z-score |
| --- | --- |
| UUUGAGG | 0.495 |
| AACGACA | -0.337 |
| AAAUGUC | -0.529 |
| UCGUUUU | -0.6 |
| CAAAGAC | -0.363 |
| CCGAGUG | 0.043 |
| GCCGGGC | -0.126 |
| GGCGGUU | 1.14 |
| UUUGGCA | -0.412 |
| AGUACGU | -0.149 |
| CCCUCUU | -0.795 |
| GGUAGAG | 3.37 |
| UGCAGGC | 0.248 |
| GUAGUCC | -0.0902 |
| UAGGUGC | 1.07 |
| UUCGGUC | -0.457 |
| UUCGGUU | 0.0723 |
| GUUGGUC | 0.706 |
| UAGGCUG | 0.508 |
| GACGUAC | -0.22 |
| ACUGAGC | -0.223 |
| UUGGGCG | 2.3 |
| GAGUCAU | -0.214 |
| UGGGCGG | 3.38 |

| Sequence | RNAcompete 7-mer binding Z-score |
| --- | --- |
| AGCAGCA | -0.165 |
| AUGUGAU | 0.231 |
| AUUUCUA | -0.876 |
| GAAAGAU | 0.456 |
| GGAGGAC | 1.86 |
| GGACGCU | 0.153 |
| CUCCUAU | -0.844 |
| GAGACUC | -0.435 |
| CCACGCU | -0.5 |
| GUUGUGC | 0.391 |
| AUGUGGG | 3.84 |
| GAGGUAC | 1.37 |
| GGAAGCC | 0.511 |
| GCCAAAU | -0.711 |
| ACGUAGA | 0.391 |
| CUAUGUA | -0.451 |
| GUAGUAA | 0.374 |
| CUUACUG | -0.665 |
| CUGAAAG | -0.269 |
| GGCAGGG | 3.16 |
| GCAGCAA | -0.126 |
| UCGAAGC | -0.36 |
| UUAAUAC | -0.578 |
| UGGGAGG | 4.4 |

| Sequence | RNAcompete 7-mer binding Z-score |
| --- | --- |
| UGCCAGA | -0.626 |
| AACUGCU | -0.753 |
| AAUGGUA | 2.63 |
| ACCUGGG | 0.469 |
| GCCAACC | -0.558 |
| GCGCCCU | -0.386 |
| CGAUACA | -0.392 |
| CAACGUA | -0.353 |
| GGCUGGU | 1.31 |
| CCUUUGC | -1.02 |
| CGUGGAU | 1.34 |
| UCUUGAG | -0.629 |
| CUCAAGG | 0.218 |
| GCCUUCA | -0.779 |
| AAUAGAU | 0.0885 |
| CGCGUGC | -0.223 |
| UUCCACG | -0.636 |
| CUACGAU | -0.292 |
| AAAGUAU | -0.21 |
| ACGCGCU | -0.457 |
| UACUGUG | -0.194 |
| UUAUUGG | 0.374 |
| AAAAGAU | -0.23 |
| UAACUAA | -0.448 |

| Sequence | RNAcompete 7-mer binding Z-score |
| --- | --- |
| CUCGUUA | -0.649 |
| CACUGGC | -0.308 |
| CCACAUG | -0.373 |
| UACGCUU | -0.73 |
| UCGGACG | 0.0235 |
| CGGACUG | 0.248 |
| CUUUCGU | -0.854 |
| UAGAGAA | 0.573 |
| UAAGCCG | -0.474 |
| AGUGUGU | 0.589 |
| CGGCAGC | -0.0869 |
| CCGAGAG | -0.334 |
| CAUAGCG | -0.467 |
| UAGACGG | 1.47 |
| UGAAUAA | -0.155 |
| UUAAAAC | -0.578 |
| AGUUAUG | 0.14 |
| CACAUGA | -0.409 |
| CCACUCA | -0.633 |
| CCAACUU | -0.828 |
| ACAUAAC | -0.594 |
| ACGUGAC | -0.249 |
| AAGAUAG | 0.829 |
| AGUAGAU | 0.335 |

| Sequence | RNAcompete 7-mer binding Z-score |
| --- | --- |
| CUUGACG | -0.548 |
| UCAGACC | -0.675 |
| CGCCCAC | -0.431 |
| UCCAAUU | -0.707 |
| CUGCGUU | -0.454 |
| GUUGAUU | -0.171 |
| GUCUUAC | -0.678 |
| CGAAAGU | -0.435 |
| CCCAUCC | -0.5 |
| CGGUCAC | -0.0187 |
| CGCAGCC | -0.675 |
| AUAUGGU | 2.02 |
| UCAAAAC | -0.392 |
| UUCUCCG | -0.594 |
| CUUGGCU | -0.561 |
| CUCCGUA | -0.668 |
| CCUCGCU | -0.681 |
| CAAACUA | -0.591 |
| UGCGACG | 0.238 |
| CCAAAGG | 0.0398 |
| UGGAAAA | 1.39 |
| UAAAUGG | 1.44 |
| UCUCAAA | -0.714 |
| AAACUGG | 0.696 |

| Sequence | RNAcompete 7-mer binding Z-score |
| --- | --- |
| GAGGUGC | 1.81 |
| GGUAACC | 0.979 |
| ACUCCGA | -0.685 |
| GGUUUAA | 0.735 |
| GACGUUA | -0.188 |
| CAUCUAG | -0.396 |
| UUCGCUA | -0.811 |
| CAGACCA | -0.574 |
| AGAGCUA | -0.415 |
| CCACAAG | -0.522 |
| AUAUUAU | -0.402 |
| CAAUAGU | -0.279 |
| AAACAUU | -0.587 |
| UUUGAAG | -0.178 |
| UUCCCUA | -0.828 |
| ACUUCUC | -0.841 |
| GCCUCUC | -0.75 |
| AUUAACU | -0.652 |
| GUUUUGC | -0.0837 |
| GCGAGAC | 0.251 |
| UUUGGCU | -0.568 |
| AUCUGUG | -0.623 |
| UGACCCU | -0.591 |
| UAUCAUA | -0.493 |

| Sequence | RNAcompete 7-mer binding Z-score |
| --- | --- |
| CUGCUCC | -0.74 |
| AAAAUUG | 0.144 |
| GUCUCGG | 0.15 |
| AGUACUC | -0.704 |
| UCGCCAU | -0.678 |
| CGCCGUG | -0.204 |
| GGGAGGG | 4.74 |
| UCGGCGA | 0.0593 |
| AAUCAUC | -0.753 |
| AGCAGAA | 0.693 |
| AACCAAC | -0.646 |
| CUGACGG | 0.592 |
| CUCAUCU | -0.883 |
| AAGCAUU | -0.665 |
| UCUCACC | -0.785 |
| AAUUUUA | -0.639 |
| GGAGAUC | 1.12 |
| UUUUCUG | -0.646 |
